# Data published in PubChem BioAssay AID1476 (National Center for Advancing Translational Sciences (NCATS), 2009).
# Screen size: about 200,000 compounds; about 4,500 (2.2%) were called active. The shares of active, inactive and inconclusive entries below differ from those in the screen. The call rests on the fitted dose curve; in most records, active means well fitted inhibition curve with a large enough effect; inconclusive means small, poorly fitted or top-dose-only effect, or effect the other way; inactive means flat fitted curve, though single readings scatter. A potency beside an inconclusive call is a rough fit, not a confirmed value. A structure can be active in one record and inactive in another.
# Target: Cruzipain (Trypanosoma cruzi) (UniProt P25779)
# Assay: qHTS Assay for Promiscuous and Specific Inhibitors of Cruzain (without detergent); further: nearly all actives have a fitted effect of over 40% in size;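 on max response, negative = inhibition: plate controls were enzyme without inhibitor for no effect and buffer without enzyme for full effect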
# Conditions: purified cruzain, Z-FR-AMC fluorescence, no detergent
# How it was run: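 Detergent-free condition (0.00005% Triton X-100) in acetate buffer pH 5.5 with DTT. 1.5 nM enzyme and compound were pre-mixed 15 min, then 2 uM Z-FR-AMC substrate added; reaction progress from fluorescence change between first and third reads (60 s).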
# Potency means the concentration at half of the fitted maximal effect; tags describe the fitted curve by direction and shape.
# Sequence of UniProt P25779 (P25779 whole entry, looked up): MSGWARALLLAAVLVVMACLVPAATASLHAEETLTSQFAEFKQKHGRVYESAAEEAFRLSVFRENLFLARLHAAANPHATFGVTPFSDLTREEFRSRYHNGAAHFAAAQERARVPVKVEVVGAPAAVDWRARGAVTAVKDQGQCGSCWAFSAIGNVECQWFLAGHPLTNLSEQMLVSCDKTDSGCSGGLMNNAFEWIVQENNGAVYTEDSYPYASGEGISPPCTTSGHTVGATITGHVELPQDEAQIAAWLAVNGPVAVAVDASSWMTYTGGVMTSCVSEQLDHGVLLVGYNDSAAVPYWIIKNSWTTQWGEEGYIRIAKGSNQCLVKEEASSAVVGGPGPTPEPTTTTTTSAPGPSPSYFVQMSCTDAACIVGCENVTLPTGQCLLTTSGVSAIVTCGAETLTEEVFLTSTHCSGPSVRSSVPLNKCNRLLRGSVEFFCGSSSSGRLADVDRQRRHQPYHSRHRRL
SMILES,Potency,"max response, negative = inhibition"
C/C(=N\NS(=O)(=O)c1cccc([N+](=O)[O-])c1)c1cc2ccccc2o1,"inconclusive: 25.1 µM [inhibitor, single point]",–
Cc1ccc(-c2cn3c(n2)sc2cc(C(=O)NCCC4=CCCCC4)ccc23)c(C)c1,"inconclusive: 5.01 µM [inhibitor, single point]",–
Brc1ccc(Cn2c(-c3ccc(Br)o3)nc3ccccc32)o1,"inconclusive: 39.8 µM [activator, single point]",–
S=c1[nH]nc(-c2cnccn2)n1-c1ccccc1,–,inactive: -9.73%
Cc1ccc(C)c(S(=O)(=O)C(C#N)c2nc3ccccc3nc2N2CCOCC2)c1 (centres undefined),"inconclusive: 31.6 µM [activator, single point]",–
O=C(CCNNC(=O)c1ccncc1)NCc1ccccc1,"inconclusive: 0.199 µM [inhibitor, single point]",–
Cc1cc(S(=O)(=O)N(Cc2ccccc2Cl)c2ccc3c(c2)CCC3)ccc1-n1cnnn1,"inconclusive: 39.8 µM [inhibitor, single point]",–
Cc1nn(C)cc1/C=C(/C#N)C(N)=O,–,inactive: -14.5%
O[C@H](CN1CC1)[C@@H](O)CN1CC1,–,inactive: 1.74%
COc1cc2c(C)c3c4c(cc(OC)c(OC)c4c2cc1OC)CCN3C,"inconclusive: 39.8 µM [activator, single point]",–
CC(CNC(=O)CCn1c(=O)c2cccn2c2ccc(F)cc21)c1ccccc1 (centres undefined),–,inactive: 29.5%
Cc1cc(C)c(S(=O)(=O)Nc2ccc3oc4c(c3c2)CCCC4)cc1C,"inconclusive: 39.8 µM [inhibitor, single point]",–
O=C(Nc1cccc(-c2nc3ccccc3s2)c1)c1cc(-n2cnnc2)ccc1Cl,"inconclusive: 39.8 µM [activator, single point]",–
COc1cc(/C=N/NC(=O)c2ccc(COc3cc(C)ccc3C(C)C)cc2)cc(OC)c1O,"inconclusive: 20 µM [activator, single point]",–
Cc1cc(/C=C2\SC(=S)N(Cc3ccco3)C2=O)c(C)n1-c1cccnc1,"inconclusive: 25.1 µM [inhibitor, single point]",–
COc1ccc(NC2=CC(c3ccc(F)cc3)N(c3ccc(OC)cc3)C2=O)cc1 (centres undefined),"inconclusive: 39.8 µM [inhibitor, single point]",–
CCOc1ccccc1CNCCCSc1nnnn1C,–,inactive: -1.59%
O=C(/C=C\c1cn(-c2ccccc2)nc1-c1cccs1)N1CCOCC1,"inconclusive: 39.8 µM [activator, single point]",–
COc1ccc(/C=C/C(=O)Nc2ccc(C34CC5CC(CC(O)(C5)C3)C4)cc2)cc1OC,"inconclusive: 39.8 µM [activator, single point]",–
CCOC(=O)N1CCC(NC(=O)c2c(C)nn(-c3cccc(C)c3)c2-n2cccc2)CC1,"inconclusive: 31.6 µM [activator, single point]",–
CCOc1ccc(C2c3c(-c4cc(C)ccc4O)n[nH]c3C(=O)N2Cc2cccnc2)cc1OCC (centres undefined),"inconclusive: 20 µM [activator, single point]",–
Cc1cc(C)cc(Oc2ccc(-c3nnc(-c4ccccc4)o3)cc2[N+](=O)[O-])c1,"inconclusive: 31.6 µM [inhibitor, single point]",–

SMILES,Potency,"max response, negative = inhibition"
CCOCCCn1cnc2c(c1=O)c1nc3ccccc3nc1n2-c1ccc(C)cc1,"inconclusive: 25.1 µM [activator, single point]",–
Cc1ccc(C)c(Cn2nnc3c(=O)[nH]c(C4CCCN(C(=O)CC(C)C)C4)nc32)c1 (centres undefined),"inconclusive: 39.8 µM [activator, single point]",–
COc1cccc(Nc2nnc(SCN3C(=O)c4ccccc4C3=O)s2)c1,"inconclusive: 31.6 µM [inhibitor, single point]",–
COc1cc(NC(=O)CN2C(=O)CCc3cc(Br)ccc32)cc(OC)c1OC,–,inconclusive: 31.5% [activator]
Cc1ccc(CCNS(=O)(=O)c2ccc3c(c2)C(C(C)C)C(=O)N3)cc1 (centres undefined),–,inactive: 7.1%
Cc1cc(C)cc(N2Cc3ccccc3C2)c1,active: 12.6 µM,–
COc1cc(OC)c(C2CC(=O)Nc3ccc4ccccc4c32)cc1OC (centres undefined),–,inactive: 1.02%
COc1ccc(NC(=O)c2ccc(-c3ccc([N+](=O)[O-])cc3)o2)cc1OC,"inconclusive: 39.8 µM [activator, single point]",–
N#Cc1nc(-c2cccs2)oc1NCCN1CCOCC1,"inconclusive: 39.8 µM [inhibitor, single point]",–
C#CCOCCOCCOCCNc1nc(N2CCN(C(=O)[C@H](C(C)C)n3cc(CCO)nn3)CC2)nc(N2CCN(C(=O)[C@H]([C@@H](C)CC)n3cc(CCCCN)nn3)CC2)n1,"inconclusive: 39.8 µM [activator, single point]",–
CCOC(=O)c1sc(Nc2nc3cc4c(cc3s2)OCO4)cc1C,active: 25.1 µM,–
Cn1c(=O)c2c(ncn2CC(=O)N/N=C/C(Br)=C/c2ccccc2)n(C)c1=O,"inconclusive: 39.8 µM [activator, single point]",–
Cc1nn(C)c(C)c1N=Cc1c(O)ccc2ccccc12,"inconclusive: 39.8 µM [activator, single point]",–
Cc1ccc(-c2csc(NC(=O)CSc3nc(C)cc(=O)[nH]3)n2)cc1,"inconclusive: 39.8 µM [inhibitor, single point]",–
COc1ccc(NC(=O)c2cccc(N3CCCS3(=O)=O)c2)c(OC)c1,–,inactive: -0.159%
NC(=O)c1cnccn1,–,inactive: 1.09% [middle of 4 runs]
Cc1cccc(-c2cc(C(=O)Nc3ccc4c(c3)OCCO4)c3ccccc3n2)c1,active: 31.6 µM,–
Cc1ccc(Cl)cc1N1CCN(S(=O)(=O)c2cccc(S(=O)(=O)N3CCCC3)c2)CC1,"inconclusive: 31.6 µM [inhibitor, single point]",–
Cc1ccc(Cn2c(C(=O)O)c(CNCc3ccc(C)o3)c3ccc(C)cc32)cc1,"inconclusive: 25.1 µM [activator, single point]",–
Cc1cccc(NC(=O)CN2C(=O)C3(SCC(=O)N3c3ccccc3)c3ccccc32)c1 (centres undefined),–,inactive: -16.7%
Brc1ccc(Oc2cc(Br)c(Br)cc2Br)c(Br)c1,"inconclusive: 20 µM [inhibitor, partial curve]",–
Cc1ccc(NC(=O)COC(=O)c2cc(-c3cccs3)nn2-c2ccccc2)cc1[N+](=O)[O-],"inconclusive: 31.6 µM [inhibitor, single point]",–

SMILES,Potency,"max response, negative = inhibition"
COc1ccccc1NC(=O)c1oc2ccccc2c1NC(=O)c1ccco1,"inconclusive: 31.6 µM [inhibitor, single point]",–
CCOC(=O)c1c(NC(=O)c2cc(=O)c3cc(C)ccc3o2)sc2c1CCCC2,–,inactive: -7.1%
COc1ccc(Cl)cc1NC(=O)CSC1=Nc2ccccc2C2=NC(CCC(=O)NCc3ccco3)C(=O)N12 (centres undefined),"inconclusive: 39.8 µM [activator, single point]",–
Cc1ccc(NC(=O)c2ccc(CSc3ncnc4nc[nH]c34)cc2)c(C)c1,"inconclusive: 39.8 µM [inhibitor, single point]",–
COc1cc2c(c(OC)c1)C(c1cccc(F)c1F)CC(=O)N2 (centres undefined),–,inactive: -9.91%
c1ccc(C2=Nn3c(nnc3-c3cc(-c4ccccc4)n[nH]3)SC2)cc1,–,inactive: -6.47%
O=C=Nc1ccc(Cc2ccc(N=C=O)cc2)cc1 (tested in a mixture with another compound),–,inactive: 3.46%
COc1ccc(C(Nc2ccccn2)c2ccc3ccc(C)nc3c2O)cc1C (centres undefined),"inconclusive: 39.8 µM [inhibitor, single point]",–
O=C(C1CCCO1)N1CCN(c2c3c(nc4cc(-c5ccc(F)cc5)nn24)CCC3)CC1 (centres undefined),"inconclusive: 31.6 µM [activator, single point]",–
CCCN(CCC)CCCNC(=O)c1cc2c(=O)n(C)c3ccccc3c2s1,"inconclusive: 6.31 µM [activator, single point]",–
Cc1ccc2sc(NNC(=O)c3cc(-c4cccs4)nc4ccccc34)nc2c1C,active: 10 µM,–
O=[N+]([O-])c1ccc(O)c(/C=N/n2cnc3ccccc32)c1,"inconclusive: 39.8 µM [inhibitor, single point]",–
O=C(N/N=C/C=C/c1ccc2c(c1)OCO2)c1ccc([N+](=O)[O-])cc1,"inconclusive: 10 µM [inhibitor, partial curve, poor fit]",–
COc1ccc(N=c2scc(-c3ccc(S(=O)(=O)N4CCOCC4)cc3)n2CCCO)cc1,"inconclusive: 25.1 µM [activator, partial curve]",–
COCCn1c(=NC(=O)c2cc(Cl)sc2Cl)sc2cc(S(N)(=O)=O)ccc21,"inconclusive: 39.8 µM [activator, single point]",–
C=CCn1c(CCCOc2ccc(Cl)cc2Cl)nnc1SCC(=O)Nc1nccs1,"inconclusive: 25.1 µM [activator, partial curve]",–
Cc1nc(NC2CCCCC2)c2nc(-c3ccccc3)n(CCN3CCCC3)c2n1,–,inactive: -4.18%
CCc1nnc(NS(=O)(=O)c2ccc(N=Cc3c(C)[nH]n(-c4ccc(Cl)cc4)c3=O)cc2)s1,"inconclusive: 10 µM [activator, partial curve]",–
COc1ccc(Cn2ccc3nc(C)c(C(=O)Nc4cccc(SC)c4)cc3c2=O)cc1,"inconclusive: 25.1 µM [activator, single point]",–
O=C(Nc1cccc(-c2nc3cc(Cl)ccc3o2)c1)C1CCCO1 (centres undefined),"inconclusive: 25.1 µM [activator, single point]",–
